Test [1] has as its target T1, TFIIIC90 (endogenous, HeLa) (human (endogenous in HeLa)) (UniProt Q9UKN8).
T1 sequence: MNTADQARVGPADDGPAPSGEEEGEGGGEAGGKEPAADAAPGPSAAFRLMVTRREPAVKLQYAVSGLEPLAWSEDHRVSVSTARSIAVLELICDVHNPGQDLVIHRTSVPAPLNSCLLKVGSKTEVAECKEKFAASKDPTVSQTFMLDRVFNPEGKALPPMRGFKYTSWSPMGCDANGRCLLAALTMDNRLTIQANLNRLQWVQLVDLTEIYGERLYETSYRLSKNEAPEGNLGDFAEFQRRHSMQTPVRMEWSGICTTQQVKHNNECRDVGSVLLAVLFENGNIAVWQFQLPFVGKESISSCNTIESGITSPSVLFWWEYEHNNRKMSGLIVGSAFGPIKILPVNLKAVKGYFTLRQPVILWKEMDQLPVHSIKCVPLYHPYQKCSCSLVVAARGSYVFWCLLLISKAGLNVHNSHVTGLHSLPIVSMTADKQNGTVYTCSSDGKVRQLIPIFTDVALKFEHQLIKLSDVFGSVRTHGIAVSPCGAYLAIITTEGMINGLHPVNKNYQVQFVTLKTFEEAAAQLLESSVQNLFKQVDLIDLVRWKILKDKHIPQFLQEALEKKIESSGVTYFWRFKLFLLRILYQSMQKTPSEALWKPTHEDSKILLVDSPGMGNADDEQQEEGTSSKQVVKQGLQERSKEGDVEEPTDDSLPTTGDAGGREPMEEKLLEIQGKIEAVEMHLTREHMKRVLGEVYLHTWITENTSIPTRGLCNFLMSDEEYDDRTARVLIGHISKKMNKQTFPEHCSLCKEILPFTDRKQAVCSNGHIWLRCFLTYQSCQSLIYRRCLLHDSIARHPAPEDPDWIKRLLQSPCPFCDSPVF
Put plainly: co-IP; endogenous proteins from HeLa nuclear extract (150 ug protein, 3 ug antibody to SMARCAD1, TFIIIC63 or TFIIIC90, Protein G Dynabeads); benzonase and ethidium bromide present throughout; washes in 20 mM HEPES pH 7.6, 100 mM KCl, 0.05% Triton X-100, last wash with additional 50 mM NaCl; Western blot. In general terms: Immunoblotting shows a protein as a band on a membrane.

Chains of the proteins cited; added tags and fusions are not shown.
UniProt Q13263: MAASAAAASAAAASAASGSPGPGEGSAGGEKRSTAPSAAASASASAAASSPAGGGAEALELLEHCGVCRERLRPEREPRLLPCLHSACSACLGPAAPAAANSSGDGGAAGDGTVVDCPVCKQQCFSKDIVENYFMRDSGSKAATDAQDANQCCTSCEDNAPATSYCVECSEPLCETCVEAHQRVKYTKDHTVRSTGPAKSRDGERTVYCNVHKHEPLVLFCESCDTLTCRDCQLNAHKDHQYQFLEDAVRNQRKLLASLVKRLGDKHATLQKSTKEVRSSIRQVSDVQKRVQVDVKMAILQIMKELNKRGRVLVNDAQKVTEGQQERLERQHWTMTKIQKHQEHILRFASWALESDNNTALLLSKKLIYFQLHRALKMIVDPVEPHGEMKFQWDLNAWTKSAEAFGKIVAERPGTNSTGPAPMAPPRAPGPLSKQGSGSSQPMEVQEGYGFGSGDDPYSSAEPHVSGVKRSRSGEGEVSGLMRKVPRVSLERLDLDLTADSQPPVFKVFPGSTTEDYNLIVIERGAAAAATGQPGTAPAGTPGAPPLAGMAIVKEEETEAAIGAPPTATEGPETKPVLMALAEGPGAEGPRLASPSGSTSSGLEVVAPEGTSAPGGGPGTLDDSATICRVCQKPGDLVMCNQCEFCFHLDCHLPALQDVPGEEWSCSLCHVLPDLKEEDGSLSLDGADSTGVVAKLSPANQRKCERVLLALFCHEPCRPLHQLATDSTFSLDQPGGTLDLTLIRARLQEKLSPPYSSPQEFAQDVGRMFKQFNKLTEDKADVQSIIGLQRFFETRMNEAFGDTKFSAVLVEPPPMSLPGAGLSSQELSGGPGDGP
UniProt Q9UQE7: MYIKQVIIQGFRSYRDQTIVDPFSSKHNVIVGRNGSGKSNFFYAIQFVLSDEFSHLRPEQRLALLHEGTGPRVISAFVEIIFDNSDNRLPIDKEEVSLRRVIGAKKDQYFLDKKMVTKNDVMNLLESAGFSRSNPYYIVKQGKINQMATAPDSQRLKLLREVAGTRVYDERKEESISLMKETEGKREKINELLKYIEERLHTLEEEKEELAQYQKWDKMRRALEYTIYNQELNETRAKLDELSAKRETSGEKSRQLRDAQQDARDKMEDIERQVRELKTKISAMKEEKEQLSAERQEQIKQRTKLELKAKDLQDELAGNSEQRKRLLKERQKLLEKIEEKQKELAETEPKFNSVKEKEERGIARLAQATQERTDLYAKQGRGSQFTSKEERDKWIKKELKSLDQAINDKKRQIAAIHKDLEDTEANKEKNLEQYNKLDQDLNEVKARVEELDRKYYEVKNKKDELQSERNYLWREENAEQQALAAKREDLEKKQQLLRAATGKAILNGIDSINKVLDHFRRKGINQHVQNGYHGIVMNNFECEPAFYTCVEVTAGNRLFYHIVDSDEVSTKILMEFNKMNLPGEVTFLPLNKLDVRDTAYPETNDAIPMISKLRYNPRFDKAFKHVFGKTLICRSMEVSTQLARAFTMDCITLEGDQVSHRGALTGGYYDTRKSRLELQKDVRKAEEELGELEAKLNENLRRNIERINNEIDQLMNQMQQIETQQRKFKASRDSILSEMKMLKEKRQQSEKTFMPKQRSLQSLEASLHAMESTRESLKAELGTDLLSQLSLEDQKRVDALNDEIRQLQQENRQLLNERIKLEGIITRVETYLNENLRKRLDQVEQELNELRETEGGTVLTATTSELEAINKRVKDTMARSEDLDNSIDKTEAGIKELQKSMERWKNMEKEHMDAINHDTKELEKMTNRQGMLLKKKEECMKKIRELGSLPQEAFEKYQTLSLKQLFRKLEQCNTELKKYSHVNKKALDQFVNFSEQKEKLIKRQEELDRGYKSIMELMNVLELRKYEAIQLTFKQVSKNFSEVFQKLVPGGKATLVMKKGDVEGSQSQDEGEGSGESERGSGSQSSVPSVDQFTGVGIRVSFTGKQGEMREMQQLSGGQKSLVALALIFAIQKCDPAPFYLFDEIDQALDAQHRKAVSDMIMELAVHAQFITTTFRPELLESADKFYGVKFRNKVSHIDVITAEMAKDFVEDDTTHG
UniProt P17844: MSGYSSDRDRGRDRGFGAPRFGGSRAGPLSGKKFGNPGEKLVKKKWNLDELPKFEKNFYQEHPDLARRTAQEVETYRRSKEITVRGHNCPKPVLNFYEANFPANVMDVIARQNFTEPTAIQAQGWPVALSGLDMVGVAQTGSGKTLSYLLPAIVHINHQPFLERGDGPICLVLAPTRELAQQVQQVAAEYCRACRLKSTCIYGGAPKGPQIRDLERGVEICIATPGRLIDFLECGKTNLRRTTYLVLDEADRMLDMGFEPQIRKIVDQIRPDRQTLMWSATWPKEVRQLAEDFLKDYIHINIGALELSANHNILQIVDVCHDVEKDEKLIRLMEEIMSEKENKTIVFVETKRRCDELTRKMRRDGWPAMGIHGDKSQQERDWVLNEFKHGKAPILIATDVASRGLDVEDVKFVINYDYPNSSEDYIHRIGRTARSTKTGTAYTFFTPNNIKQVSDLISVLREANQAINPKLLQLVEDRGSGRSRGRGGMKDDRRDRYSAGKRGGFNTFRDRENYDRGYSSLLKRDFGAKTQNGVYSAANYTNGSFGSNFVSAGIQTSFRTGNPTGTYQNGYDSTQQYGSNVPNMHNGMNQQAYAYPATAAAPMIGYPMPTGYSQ

Test [2] concerns the target T2, SMARCAD1 (endogenous, HeLa) (human (endogenous in HeLa)) (UniProt Q9H4L7).
T2 sequence: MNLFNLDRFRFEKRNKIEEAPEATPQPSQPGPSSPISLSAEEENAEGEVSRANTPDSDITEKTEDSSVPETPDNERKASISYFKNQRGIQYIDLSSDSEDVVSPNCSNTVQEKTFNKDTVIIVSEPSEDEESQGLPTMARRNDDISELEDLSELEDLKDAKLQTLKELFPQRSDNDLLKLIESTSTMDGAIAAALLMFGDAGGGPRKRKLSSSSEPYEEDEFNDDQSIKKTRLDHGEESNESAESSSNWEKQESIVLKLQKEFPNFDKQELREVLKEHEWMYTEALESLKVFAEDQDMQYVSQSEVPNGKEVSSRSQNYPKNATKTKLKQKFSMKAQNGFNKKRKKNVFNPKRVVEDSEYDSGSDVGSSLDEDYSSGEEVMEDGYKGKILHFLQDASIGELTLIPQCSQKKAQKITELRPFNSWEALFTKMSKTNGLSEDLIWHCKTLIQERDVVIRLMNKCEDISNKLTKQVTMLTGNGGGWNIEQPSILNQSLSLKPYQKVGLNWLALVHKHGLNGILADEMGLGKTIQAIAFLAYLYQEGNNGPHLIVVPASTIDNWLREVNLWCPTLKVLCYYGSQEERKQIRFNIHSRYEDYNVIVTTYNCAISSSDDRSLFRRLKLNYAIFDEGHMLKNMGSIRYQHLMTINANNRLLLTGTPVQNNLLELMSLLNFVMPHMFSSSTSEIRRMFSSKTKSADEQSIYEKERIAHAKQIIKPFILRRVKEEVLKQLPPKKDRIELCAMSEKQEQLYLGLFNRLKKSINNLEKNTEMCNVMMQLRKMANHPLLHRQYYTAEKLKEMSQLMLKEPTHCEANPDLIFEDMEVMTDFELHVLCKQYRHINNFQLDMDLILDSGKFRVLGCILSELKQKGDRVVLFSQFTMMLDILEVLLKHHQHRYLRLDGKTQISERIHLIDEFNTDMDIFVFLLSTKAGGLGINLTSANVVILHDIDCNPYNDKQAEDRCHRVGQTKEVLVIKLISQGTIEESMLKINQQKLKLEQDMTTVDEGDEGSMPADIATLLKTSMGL
The test is described as above.

No constants are given. Whether binding was seen depends on the method and setting. In cells and extracts the contact can be indirect. Some results given as binding are weak or reduced against the parent protein; the word gives no strength.

Six molecules from publication PMC10530723, “The Conserved Chromatin Remodeler SMARCAD1 Interacts with TFIIIC and Architectural Proteins in Human and Mouse” (Genes, 2023) can be followed below.

On to “KAP1 (endogenous, HeLa) (from UniProt Q13263 1-835)”, for which the binding result in test [1] is reported as “binds”. Regarding “SMC3 (endogenous, HeLa) (from UniProt Q9UQE7 1-1217)”, the binding result in test [2] and in test [1] was “binds” in each case.

On to “DDX5 (endogenous, HeLa) (from UniProt P17844 1-614)”, for which the binding result in test [2] and in test [1] was “binds” each time.

B1: TFIIIC63 (endogenous, HeLa) (protein, UniProt Q9Y5Q8 1-519)
chain: MAAEAADLGLGAAVPVELRRERRMVCVEYPGVVRDVAKMLPTLGGEEGVSRIYADPTKRLELYFRPKDPYCHPVCANRFSTSSLLLRIRKRTRRQKGVLGTEAHSEVTFDMEILGIISTIYKFQGMSDFQYLAVHTEAGGKHTSMYDKVLMLRPEKEAFFHQELPLYIPPPIFSRLDAPVDYFYRPETQHREGYNNPPISGENLIGLSRARRPHNAIFVNFEDEEVPKQPLEAAAQTWRRVCTNPVDRKVEEELRKLFDIRPIWSRNAVKANISVHPDKLKVLLPFIAYYMITGPWRSLWIRFGYDPRKNPDAKIYQVLDFRIRCGMKHGYAPSDLPVKAKRSTYNYSLPITVKKTSSQLVTMHDLKQGLGPSGTSGARKPASSKYKLKDSVYIFREGALPPYRQMFYQLCDLNVEELQKIIHRNDGAENSCTERDGWCLPKTSDELRDTMSLMIRQTIRSKRPALFSSSAKADGGKEQLTYESGEDEEDEEEEEEEEEDFKPSDGSENEMETEILDYV
On to B1, for which the binding entry in test [2] is “binds”.

B2: TFIIIC90 (endogenous, HeLa) (protein, UniProt Q9UKN8 1-822)
chain: T1 sequence
Regarding B2, the binding entry in test [2] is on record as “binds”.

B3: SMC1A (endogenous, HeLa) (protein, UniProt Q14683 1-1233)
chain: MGFLKLIEIENFKSYKGRQIIGPFQRFTAIIGPNGSGKSNLMDAISFVLGEKTSNLRVKTLRDLIHGAPVGKPAANRAFVSMVYSEEGAEDRTFARVIVGGSSEYKINNKVVQLHEYSEELEKLGILIKARNFLVFQGAVESIAMKNPKERTALFEEISRSGELAQEYDKRKKEMVKAEEDTQFNYHRKKNIAAERKEAKQEKEEADRYQRLKDEVVRAQVQLQLFKLYHNEVEIEKLNKELASKNKEIEKDKKRMDKVEDELKEKKKELGKMMREQQQIEKEIKEKDSELNQKRPQYIKAKENTSHKIKKLEAAKKSLQNAQKHYKKRKGDMDELEKEMLSVEKARQEFEERMEEESQSQGRDLTLEENQVKKYHRLKEEASKRAATLAQELEKFNRDQKADQDRLDLEERKKVETEAKIKQKLREIEENQKRIEKLEEYITTSKQSLEEQKKLEGELTEEVEMAKRRIDEINKELNQVMEQLGDARIDRQESSRQQRKAEIMESIKRLYPGSVYGRLIDLCQPTQKKYQIAVTKVLGKNMDAIIVDSEKTGRDCIQYIKEQRGEPETFLPLDYLEVKPTDEKLRELKGAKLVIDVIRYEPPHIKKALQYACGNALVCDNVEDARRIAFGGHQRHKTVALDGTLFQKSGVISGGASDLKAKARRWDEKAVDKLKEKKERLTEELKEQMKAKRKEAELRQVQSQAHGLQMRLKYSQSDLEQTKTRHLALNLQEKSKLESELANFGPRINDIKRIIQSREREMKDLKEKMNQVEDEVFEEFCREIGVRNIREFEEEKVKRQNEIAKKRLEFENQKTRLGIQLDFEKNQLKEDQDKVHMWEQTVKKDENEIEKLKKEEQRHMKIIDETMAQLQDLKNQHLAKKSEVNDKNHEMEEIRKKLGGANKEMTHLQKEVTAIETKLEQKRSDRHNLLQACKMQDIKLPLSKGTMDDISQEEGSSQGEDSVSGSQRISSIYAREALIEIDYGDLCEDLKDAQAEEEIKQEMNTLQQKLNEQQSVLQRIAAPNMKAMEKLESVRDKFQETSDEFEAARKRAKKAKQAFEQIKKERFDRFNACFESVATNIDEIYKALSRNSSAQAFLGPENPEEPYLDGINYNCVAPGKRFRPMDNLSGGEKTVAALALLFAIHSYKPAPFFVLDEIDAALDNTNIGKVANYIKEQSTCNFQAIVISLKEEFYTKAESLIGVYPEQGDCVISKVLTFDLTKYPDANPNPNEQ
Regarding B3, the binding result in test [2] and in test [1] was “binds” each time.
